Laboratory results as given in patent publication US11542311B2, “Fusion protein, preparation method therefor and application thereof in preparing ophthalmic disease treatment, anti-inflammation and anti-tumor medicament” (JIANGSU RONGTAI BIOTECH CO., LTD., priority 2017, dated 2023).

Tests used:
Type in all cases: cell-based
[1] = test system: melanoma cell B16F10; assay: MTT assay, proliferation of melanoma cell B16F10; settings: 48 h
Method: (§1) The MTT assay was used to detect the inhibitory effect of the integrin blocker fusion protein obtained in Example 1 on the proliferation of various tumor cells, including melanoma cell B16F10, gastric cancer cell MGC-803, lung cancer cell A549, liver cancer cell Hep-G2, breast cancer cell MDA-MB-231, colon cancer cell HCT-116, human glioma U87, and cervical cancer cell Hela.
(§2) The tumor cells were cultured in a 5% CO2 incubator at 37° C. to a density of 90% or more, and collected by trypsinization. The cells were resuspended in the culture liquid and counted under a microscope. The cell concentration was adjusted to 3.0×10^4 cells/mL. The cell suspension was inoculated into a 96-well plate, 100 μL per well, and cultured overnight in a 5% CO2 incubator at 37° C. The fusion proteins I, II, and the positive drug Taxol were diluted with the culture liquid to respective predetermined concentrations. After the cells were fully adhered, each dilution was added to a 96-well plate, 100 μL per well, respectively. The integrin blocker fusion proteins I and II were added as an administration group, Taxol was used as a positive control group, and the culture liquid without any drug was used as a blank control group, and incubated in an 5% CO2 incubator at 37° C. for 48 hours. 20 μL of 5 mg/mL MTT was added to each well of a 96-well plate, and incubation was continued for 4 hours. The medium was aspirated and 100 μL of DMSO per well were added to dissolve. The absorbance was measured at 570 nm with a microplate reader with a reference wavelength of 630 nm, and the proliferation inhibition (PI) was calculated. The formula is as follows: […]
(§3) where Ntest is the OD value of the test group and Ncontrol is the OD value of the blank control group.
(§4) The test was repeated 5 times independently. The results obtained from the test were calculated as mean±SD, and statistical t-test was performed. P<0.05 was considered as significant difference, and P<0.01 was considered as an extremely significant difference.

[2] = test system: colon cancer cell HCT-116; assay: MTT assay, proliferation of colon cancer cell HCT-116; settings: 48 h
Method: as §1, §2, §3, §4

[3] = test system: Human umbilical vein endothelial cells (HUVECs); assay: Three-dimensional transwell assay, migration of HUVEC; settings: 24 h
Method: (1) 10 mg/mL Matrigel (a basement membrane matrix secreted by Engelbreth-Holm-Swarm (EHS) mouse sarcoma cells) diluted with a DMEM medium (Dulbecco's Modified Eagle Medium) at a ratio of 1:4, coated on a transwell chamber membrane, and air-dried at room temperature;
(2) HUVEC cells cultured to logarithmic phase were digested with 0.2% EDTA, collected, washed twice with PBS, followed by resuspended in an endothelial cell culture liquid containing 0.1% BSA, and counted under a microscope, and the cell concentration was adjusted to 1×10^5 cells/mL;
(3) Test solutions for each group were formulated and diluted to 100 μL with a cell culture liquid containing 0.1% BSA;
(4) The cells were inoculated into a transwell chamber, 100 μL per well, and test solutions for each group were added to the chamber. To a 24-well plate, 0.6 mL of endothelial cell culture liquid containing 5% fetal bovine serum and 1×ECGS was added to stimulate cell migration, and incubated at 5% CO2 at 37° C. for 24 h;
(5) The culture liquid in the well was discarded. The cells were fixed with 90% alcohol at room temperature for 30 min, stained with 0.1% crystal violet for 10 min at room temperature, and rinsed with water. Un-migrated cells in the upper layer were gently wiped off by a cotton swab. The observation was carried out under a microscope and four fields of view were selected for taking photos and counting. The migration inhibition (MI) was calculated according to the formula: […]
where Ntest is the migration cell number in the test group, and Ncontrol is the migration cell number in the blank control group.
The test was repeated 3 times independently. The results obtained from the test were calculated as mean±SD, and statistical t-test was performed. P<0.05 was considered as a significant difference, and P<0.01 was considered as extremely significant difference.

B1: Protein II: Fc fusion protein Fc-IL4DM-HM3: IgG1-Fc, IL-4 and HM-3 joined by rigid (R) linker; SEQ ID NO: 2 (protein)
chain: [gap - human IgG1 Fc]AEAAAKEAAAKEAAAKEAAAKAHKCDITLQEIIKTLNSLTEQKTLCTELTVTDIFAASKNTTEKETFCRAATVLRQFYSHHEKDTRCLGATAQQFHRHKQLIRFLKRLDRNLWGLAGLNSCPVKEANQSTLENFLERLKTIMDEKDSKCSSAEAAAKEAAAKEAAAKEAAAKAIVRRADRAAVPGGGGRGD
A570 nm/A630 nm ([1]; 1 μg/mL): 1.1154 ± 0.0382 | PI (%) ([1]; 1 μg/mL): 11.17% | A570 nm/A630 nm ([1]; 2 μg/mL): 1.0259 ± 0.0232 | PI (%) ([1]; 2 μg/mL): 18.29% | A570 nm/A630 nm ([1]; 4 μg/mL): 0.8991 ± 0.0725 | PI (%) ([1]; 4 μg/mL): 28.39% | A570 nm/A630 nm ([1]; 8 μg/mL): 0.7251 ± 0.0429 | PI (%) ([1]; 8 μg/mL): 42.25% | A570 nm/A630 nm ([1]; 16 μg/mL): 0.6411 ± 0.0659 | PI (%) ([1]; 16 μg/mL): 48.94% | A570 nm/A630 nm ([1]; 32 μg/mL): 0.5034 ± 0.0279 | PI (%) ([1]; 32 μg/mL): 59.91% | A570 nm/A630 nm ([1]; 64 μg/mL): 0.3865 ± 0.0189 | PI (%) ([1]; 64 μg/mL): 69.22% | A570 nm/A630 nm ([1]; 128 μg/mL): 0.2939 ± 0.0319 | PI (%) ([1]; 128 μg/mL): 76.59% | A570 nm/A630 nm ([1]; 256 μg/mL): 0.1749 ± 0.0209 | PI (%) ([1]; 256 μg/mL): 85.07% | A570 nm/A630 nm ([2]; 1 μg/mL): 0.6610 ± 0.0280 | PI (%) ([2]; 1 μg/mL): 2.84% | A570 nm/A630 nm ([2]; 2 μg/mL): 0.6440 ± 0.0143 | PI (%) ([2]; 2 μg/mL): 5.34% | A570 nm/A630 nm ([2]; 4 μg/mL): 0.6112 ± 0.0495 | PI (%) ([2]; 4 μg/mL): 10.16% | A570 nm/A630 nm ([2]; 8 μg/mL): 0.5615 ± 0.0125 | PI (%) ([2]; 8 μg/mL): 17.46% | A570 nm/A630 nm ([2]; 16 μg/mL): 0.5416 ± 0.0375 | PI (%) ([2]; 16 μg/mL): 20.39% | A570 nm/A630 nm ([2]; 32 μg/mL): 0.4889 ± 0.0109 | PI (%) ([2]; 32 μg/mL): 28.13% | A570 nm/A630 nm ([2]; 64 μg/mL): 0.4000 ± 0.0020 | PI (%) ([2]; 64 μg/mL): 41.20% | A570 nm/A630 nm ([2]; 128 μg/mL): 0.3126 ± 0.0255 | PI (%) ([2]; 128 μg/mL): 54.05% | A570 nm/A630 nm ([2]; 256 μg/mL): 0.2324 ± 0.0283 | PI (%) ([2]; 256 μg/mL): 65.84% | MI (%) ([3]; 0.25 μg/mL): 14.88% | MI (%) ([3]; 0.5 μg/mL): 51.26% | MI (%) ([3]; 1 μg/mL): 72.56% | MI (%) ([3]; 2 μg/mL): 76.82% | MI (%) ([3]; 4 μg/mL): 64.94% | MI (%) ([3]; 8 μg/mL): 29.48%

B2: Protein I: Fc fusion protein Fc-IL4DM-HM3: IgG1-Fc, IL-4 and HM-3 joined by flexible (F) linker; SEQ ID NO: 1 (protein)
chain: [gap - human IgG1 Fc]GGGGSGGGGSGGGGSHKCDITLQEIIKTLNSLTEQKTLCTELTVTDIFAASKNTTEKETFCRAATVLRQFYSHHEKDTRCLGATAQQFHRHKQLIRFLKRLDRNLWGLAGLNSCPVKEANQSTLENFLERLKTIMDEKDSKCSSGGGGSGGGGSGGGGSIVRRADRAAVPGGGGRGD
A570 nm/A630 nm ([1]; 1 μg/mL): 1.1081 ± 0.0159 | PI (%) ([1]; 1 μg/mL): 11.75% | A570 nm/A630 nm ([1]; 2 μg/mL): 1.0012 ± 0.0786 | PI (%) ([1]; 2 μg/mL): 20.26% | A570 nm/A630 nm ([1]; 4 μg/mL): 0.8611 ± 0.0643 | PI (%) ([1]; 4 μg/mL): 31.42% | A570 nm/A630 nm ([1]; 8 μg/mL): 0.6974 ± 0.0421 | PI (%) ([1]; 8 μg/mL): 44.46% | A570 nm/A630 nm ([1]; 16 μg/mL): 0.5234 ± 0.0769 | PI (%) ([1]; 16 μg/mL): 58.31% | A570 nm/A630 nm ([1]; 32 μg/mL): 0.4331 ± 0.0591 | PI (%) ([1]; 32 μg/mL): 65.51% | A570 nm/A630 nm ([1]; 64 μg/mL): 0.3032 ± 0.0279 | PI (%) ([1]; 64 μg/mL): 75.85% | A570 nm/A630 nm ([1]; 128 μg/mL): 0.1954 ± 0.0499 | PI (%) ([1]; 128 μg/mL): 84.44% | A570 nm/A630 nm ([1]; 256 μg/mL): 0.0834 ± 0.0334 | PI (%) ([1]; 256 μg/mL): 93.36% | A570 nm/A630 nm ([2]; 1 μg/mL): 0.6640 ± 0.0246 | PI (%) ([2]; 1 μg/mL): 2.40% | A570 nm/A630 nm ([2]; 2 μg/mL): 0.6412 ± 0.0181 | PI (%) ([2]; 2 μg/mL): 5.75% | A570 nm/A630 nm ([2]; 4 μg/mL): 0.6089 ± 0.0131 | PI (%) ([2]; 4 μg/mL): 10.50% | A570 nm/A630 nm ([2]; 8 μg/mL): 0.5503 ± 0.0319 | PI (%) ([2]; 8 μg/mL): 19.11% | A570 nm/A630 nm ([2]; 16 μg/mL): 0.5285 ± 0.0222 | PI (%) ([2]; 16 μg/mL): 22.31% | A570 nm/A630 nm ([2]; 32 μg/mL): 0.4529 ± 0.0190 | PI (%) ([2]; 32 μg/mL): 33.43% | A570 nm/A630 nm ([2]; 64 μg/mL): 0.3726 ± 0.0190 | PI (%) ([2]; 64 μg/mL): 45.23% | A570 nm/A630 nm ([2]; 128 μg/mL): 0.2826 ± 0.0151 | PI (%) ([2]; 128 μg/mL): 58.46% | A570 nm/A630 nm ([2]; 256 μg/mL): 0.2071 ± 0.0271 | PI (%) ([2]; 256 μg/mL): 69.56% | MI (%) ([3]; 0.25 μg/mL): 18.17% | Migration cell number ([3]; 0.25 μg/mL): 2040.0 ± 180.21 | MI (%) ([3]; 0.5 μg/mL): 30.28% | Migration cell number ([3]; 0.5 μg/mL): 1738 ± 366.83 | MI (%) ([3]; 1 μg/mL): 62.58% | Migration cell number ([3]; 1 μg/mL): 933.0 ± 150.58 | MI (%) ([3]; 2 μg/mL): 70.68% | Migration cell number ([3]; 2 μg/mL): 731.0 ± 236.53 | MI (%) ([3]; 4 μg/mL): 68.47% | Migration cell number ([3]; 4 μg/mL): 786.0 ± 45.50 | MI (%) ([3]; 8 μg/mL): 44.44% | Migration cell number ([3]; 8 μg/mL): 1385.0 ± 176.11
